Over roughly 18,000 sequences, “TetR repression strength (sort-seq, GFP reporter)” has its median near 0.23; the highest 2% begin near 0.68. This is one part of the list.
The sequences below were run against TetR (class B, Tn10) (UniProt P04483) (assay: TetR repression strength (sort-seq, GFP reporter) (relative to tetO2 = 1); higher = stronger repression). Conditions: E. coli.
Procedure, shortened: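 E. coli SIG10-MAX carried a low-copy plasmid library with eight randomized operator positions between a constitutive promoter and sfGFP, with TetR constitutively expressed. Cells grew 5 h at 37 °C in LB with 50 µg/mL chloramphenicol, then 10^6 cells were FACS-sorted into 13 fluorescence bins, each Illumina-sequenced. Repression strength is the top bin index plus one minus the read-weighted mean bin, divided by the wild-type operator value. Three independent transformations; variants with ≥30 reads in all replicates and CV ≤0.5 were averaged.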

Chain of UniProt P04483 (P04483 whole entry): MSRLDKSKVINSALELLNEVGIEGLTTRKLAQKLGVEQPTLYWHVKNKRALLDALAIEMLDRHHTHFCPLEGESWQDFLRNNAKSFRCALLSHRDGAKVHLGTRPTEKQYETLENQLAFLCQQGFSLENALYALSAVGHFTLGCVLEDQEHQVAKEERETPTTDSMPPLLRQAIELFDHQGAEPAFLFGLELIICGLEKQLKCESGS

| Sequence | TetR repression strength |
| --- | --- |
| TCCCGGGAAGTTGATGAGA | 0.0797 |
| TCCCTTACAGTCTTGGAGA | 0.19 |
| TCCCTCAGAGTGTATGAGA | 0.21 |
| TCCCCGGGAGTTGCTGAGA | 0.0444 |
| TCCCGAGAAGTGGCTGAGA | 0.43 |
| TCCCAGGAAGTGCTCGAGA | 0.104 |
| TCCCGGGCAGTGGTAGAGA | 0.22 |
| TCCCAGGCAGTGTCTGAGA | 0.288 |
| TCCCTTTAAGTTGGAGAGA | 0.216 |
| TCCCTACAAGTCTCAGAGA | 0.139 |
| TCCCGCGTAGTAAGTGAGA | 0.299 |
| TCCCCCGGAGTTTAGGAGA | 0.408 |
| TCCCAGTTAGTGGGTGAGA | 0.172 |
| TCCCGAGAAGTGGGTGAGA | 0.313 |
| TCCCGGTCAGTATAGGAGA | 0.219 |
| TCCCGGGTAGTGGCGGAGA | 0.268 |
| TCCCCGCAAGTTTCAGAGA | 0.183 |
| TCCCATCGAGTGCGCGAGA | 0.244 |
| TCCCCTACAGTACCTGAGA | 0.246 |
| TCCCTACCAGTCGCGGAGA | 0.967 |
| TCCCGAAGAGTGCTGGAGA | 0.548 |
| TCCCGTTCAGTGTCTGAGA | 0.289 |
| TCCCTACCAGTAGCGGAGA | 0.353 |
| TCCCGAGGAGTAAAAGAGA | 0.487 |
| TCCCTCAAAGTTGACGAGA | 0.503 |
| TCCCTGGCAGTCCATGAGA | 0.519 |

| Sequence | TetR repression strength |
| --- | --- |
| TCCCACTCAGTTCGAGAGA | 0.0835 |
| TCCCGGCCAGTCACCGAGA | 0.19 |
| TCCCGGCGAGTGGCAGAGA | 0.45 |
| TCCCGATGAGTGCTGGAGA | 0.27 |
| TCCCACAGAGTGAATGAGA | 0.382 |
| TCCCATTAAGTTCGTGAGA | 0.227 |
| TCCCACTGAGTTGCCGAGA | 0.505 |
| TCCCCAGAAGTTATTGAGA | 0.152 |
| TCCCATCGAGTTAAAGAGA | 0.528 |
| TCCCTTCGAGTAGTTGAGA | 0.0991 |
| TCCCGTATAGTGGTTGAGA | 0.104 |
| TCCCGGTTAGTAGCAGAGA | 0.0652 |
| TCCCGTTGAGTGCCGGAGA | 0.123 |
| TCCCACACAGTCCGAGAGA | 0.599 |
| TCCCCGAAAGTCTGGGAGA | 0.18 |
| TCCCAACAAGTCATTGAGA | 0.0354 |
| TCCCAAGTAGTGAATGAGA | 0.0797 |
| TCCCTGTCAGTAGGAGAGA | 0.197 |
| TCCCGGGGAGTCGGAGAGA | 0.129 |
| TCCCTGAGAGTGTGAGAGA | 0.309 |
| TCCCCGTGAGTTGTGGAGA | 0.13 |
| TCCCCTCCAGTCTCCGAGA | 0.358 |
| TCCCCGGAAGTCTTCGAGA | 0.22 |
| TCCCTTCAAGTGTCAGAGA | 0.303 |
| TCCCTGAGAGTTGCTGAGA | 0.221 |
| TCCCGCGGAGTATGGGAGA | 0.214 |

| Sequence | TetR repression strength |
| --- | --- |
| TCCCTGCAAGTTGATGAGA | 0.246 |
| TCCCGGACAGTGCCCGAGA | 0.655 |
| TCCCGTGTAGTGCGGGAGA | 0.281 |
| TCCCATTGAGTATTCGAGA | 0.22 |
| TCCCAAAGAGTCCATGAGA | 0.436 |
| TCCCACAGAGTGGGGGAGA | 0.178 |
| TCCCAACGAGTATATGAGA | 0.102 |
| TCCCGCAAAGTGGGTGAGA | 0.18 |
| TCCCCTGCAGTTGGAGAGA | 0.159 |
| TCCCAGCTAGTGCGGGAGA | 0.442 |
| TCCCGAAGAGTGCCGGAGA | 0.16 |
| TCCCGAGGAGTTAAGGAGA | 0.295 |
| TCCCTGTAAGTCTGAGAGA | 0.303 |
| TCCCGTTTAGTCTACGAGA | 0.136 |
| TCCCGGTCAGTAGACGAGA | 0.109 |
| TCCCAATCAGTTCCCGAGA | 0.382 |
| TCCCAGTTAGTACGAGAGA | 0.491 |
| TCCCTCGCAGTGGGTGAGA | 0.205 |
| TCCCTGAGAGTGGTTGAGA | 0.213 |
| TCCCGCGCAGTATTGGAGA | 0.483 |
| TCCCAGTTAGTGTAGGAGA | 0.179 |
| TCCCTGTTAGTCAGAGAGA | 0.0876 |
| TCCCTCTCAGTCCAGGAGA | 0.261 |
| TCCCTGTCAGTGGGAGAGA | 0.333 |
| TCCCAAGCAGTAAGCGAGA | 0.207 |
| TCCCAACTAGTTGCTGAGA | 0.382 |

| Sequence | TetR repression strength |
| --- | --- |
| TCCCCCCCAGTTTAAGAGA | 0.313 |
| TCCCCCATAGTATGAGAGA | 0.207 |
| TCCCTTTGAGTGGCTGAGA | 0.187 |
| TCCCTTTTAGTTGTGGAGA | 0.291 |
| TCCCGGTGAGTTGTCGAGA | 0.355 |
| TCCCAGATAGTCTCGGAGA | 0.121 |
| TCCCGTGAAGTTTAAGAGA | 0.425 |
| TCCCGTTCAGTGAAAGAGA | 0.553 |
| TCCCTCGTAGTATGGGAGA | 0.332 |
| TCCCTGGGAGTGGTTGAGA | 0.25 |
| TCCCAGACAGTTACAGAGA | 0.204 |
| TCCCGGTGAGTCAAAGAGA | 0.338 |
| TCCCCACAAGTTAAGGAGA | 0.26 |
| TCCCTAAGAGTGTTCGAGA | 0.324 |
| TCCCGAGGAGTGGAAGAGA | 0.122 |
| TCCCGCAAAGTAGGTGAGA | 0.239 |
| TCCCGTAGAGTCTCAGAGA | 0.257 |
| TCCCGTACAGTCTGAGAGA | 0.191 |
| TCCCAATGAGTCACTGAGA | 0.161 |
| TCCCTCCCAGTGACGGAGA | 0.197 |
| TCCCGGGGAGTCTGGGAGA | 0.179 |
| TCCCCTTGAGTTAGGGAGA | 0.207 |
| TCCCAATCAGTCGGTGAGA | 0.431 |
| TCCCAGGGAGTGATGGAGA | 0.471 |
